From the antibiotic and cytotoxicity screens of Wong et al. (2023)
The other results are listed elsewhere or left out.

How the values were obtained:
HSkMC = human skeletal muscle cells; assay: cytotoxicity call (relative viability < 0.9); details: 10 µM
HepG2 = assay: cytotoxicity call (relative viability < 0.9); details: 10 µM
S. aureus RN4220 = assay: growth inhibition call (relative growth <= 0.2); details: 50 µM

Structure (SMILES)	cytotoxicity call (HSkMC)	cytotoxicity call (HepG2)	growth inhibition call (S. aureus RN4220)
C[C@@H]1CCCCO[C@H](CN(C)Cc2ccncc2)[C@@H](C)CN([C@H](C)CO)C(=O)c2cc(NC(=O)Nc3cccc4ccccc34)ccc2O1	inactive	inactive	inactive
C[C@@H]1CN([C@H](C)CO)C(=O)c2cc(/C=C/c3ccccc3)cnc2O[C@@H]1CN(C)C(=O)Nc1ccc(C(F)(F)F)cc1	inactive	active	inactive
C[C@@H]1CN([C@@H](C)CO)C(=O)c2cccc(NS(=O)(=O)c3cn(C)cn3)c2O[C@H]1CN(C)CC1CCCCC1	inactive	inactive	inactive
CC(C)NC(=O)N(C)C[C@H]1OCCCC[C@@H](C)Oc2ccc(NC(=O)Nc3cccc4ccccc34)cc2C(=O)N([C@@H](C)CO)C[C@H]1C	inactive	inactive	inactive
Cc1ccc(S(=O)(=O)Nc2ccc3c(c2)C(=O)N([C@H](C)CO)C[C@H](C)[C@H](CN(C)S(C)(=O)=O)OCCCC[C@@H](C)O3)cc1	inactive	inactive	inactive
CCc1nc2ccc(C(=O)Nc3ccc(C(N)=O)cc3)cn2c1N(CC)Cc1cccc(Br)c1	inactive	inactive	inactive
C[C@@H]1CCCCO[C@H](CN(C)CC2CC2)[C@H](C)CN([C@@H](C)CO)C(=O)c2cc(NC(=O)NC3CCCCC3)ccc2O1	inactive	inactive	inactive
Cc1noc(C)c1NC(=O)N(C)C[C@H]1Oc2c(NC(=O)NC(C)C)cccc2C(=O)N([C@@H](C)CO)C[C@H]1C	inactive	inactive	inactive
COc1ccc(S(=O)(=O)Nc2ccc3c(c2)C(=O)N([C@H](C)CO)C[C@H](C)[C@@H](CN(C)S(=O)(=O)c2ccc(C)cc2)O3)cc1	inactive	inactive	inactive
CS(=O)(=O)CCNCc1ccc(-c2ccc3ncnc(Nc4ccc(OCc5cccc(F)c5)c(Cl)c4)c3c2)o1	active	active	inactive
COc1ccc([Si](C)(C)[C@H]2[C@H](CCn3cc([C@H](O)c4ccccc4)nn3)O[C@@]3(C(=O)N(Cc4ccc(N5CCOC5=O)cc4)c4ccccc43)[C@@H]2C)cc1	inactive	inactive	inactive
CC(C)(N)c1nc(-c2ccc(OC(F)(F)F)cc2)c[nH]1	inactive	inactive	inactive
COc1ccc(CN(C)C[C@@H]2OCCCC[C@H](C)Oc3ccc(NC(=O)c4ccccc4)cc3C(=O)N([C@H](C)CO)C[C@@H]2C)cc1	inactive	inactive	inactive
C[C@H](CO)N1C[C@H](C)[C@@H](CN(C)S(=O)(=O)c2ccccc2)Oc2c(NS(C)(=O)=O)cccc2C1=O	inactive	inactive	inactive
C[C@H](CO)N1C[C@H](C)[C@H](CN(C)C(=O)Nc2ccc3c(c2)OCO3)OCCCC[C@H](C)Oc2ccc(NC(=O)Nc3ccc(C(F)(F)F)cc3)cc2C1=O	inactive	inactive	inactive
